*1 amine or outer side, *2 acyl side, *3 side chain or, on linkers, in order; H or OH if unused. Where a SMILES comes first, the peptide text is derived from it. [ ]: non-standard residue; d: D form. The star is where a group is joined. Pro(3R,4S-CMe2) = CC1(C)[C@@H]2[C@@H](C(=O)O)NC[C@@H]21; X84 = O=C(C(=O)[*:2])C(CC1COC1)N[*:1]; Phg = N[C@H](C(=O)O)c1ccccc1; Tle = CC(C)(C)[C@H](N)C(=O)O; CO = O=C([*:1])[*:2]; NHtBu = CC(C)(C)N*
Target: HCV NS3/NS4A protease (strain 1a) (Hepatitis C virus genotype 1a, UniProt P27958)
Assay: biochemical
Settings: Table 5; HCV NS3/NS4A protease, 30° C., pH 6.5; read-out: Ki* Range

Row | Ki | SMILES
1 | > 1000 nM | C=CCNC(=O)C(=O)C(CCC)NC(=O)[C@@H]1C2C(CN1C(=O)[C@@H](NC(=O)NC13CC4CC(CC(C4)C1)C3)C1Cc3ccccc3C1)C2(C)C (stereo partly drawn)

Same assay, conditions: Table 5; HCV NS3/NS4A protease, spectrophotometric assay, 30° C., pH 6.5; read-out: Ki* Range

Row | SMILES | Ki
2 | CC(C)N(C(=O)N[C@H](C(=O)N1C[C@@H]2[C@H]([C@H]1C(=O)NC(CC1CCC1)C(=O)C(N)=O)C2(C)C)C1CCCCC1)C(C)C (stereo partly drawn) | 101 to 1000 nM
3 | CN(C(=O)N[C@H](C(=O)N1C[C@H]2[C@@H]([C@H]1C(=O)NC(CC1CC1)C(=O)C(N)=O)C2(C)C)C(C)(C)C)C1CCCCC1 (stereo partly drawn) | 101 to 1000 nM
4 | CCCC(NC(=O)[C@@H]1[C@@H]2[C@H](CN1C(=O)[C@@H](NC(=O)OC(C)(C)C)C(C)(C)C)C2(C)C)C(=O)C(=O)NOCC (stereo partly drawn) | > 1000 nM
5 | CC(C)(C)OC(=O)C[C@H](C(=O)N1C[C@H]2[C@@H]([C@H]1C(=O)NC(CCC1CC1)C(=O)C(N)=O)C2(C)C)C1CCCCC1 (stereo partly drawn) | 101 to 1000 nM
6 | CCCCC(NC(=O)[C@@H]1[C@H]2[C@@H](CN1C(=O)[C@@H](NC(=O)OC(C)(C)C)C(C)(C)C)C2(C)C)C(=O)C(=O)NOC (stereo partly drawn) | 101 to 1000 nM
7 | CC(C)[C@H](NC(=O)OC(C)(C)C)C(=O)N1C[C@H]2[C@@H]([C@H]1C(=O)NC(CC1CC1)C(=O)C(=O)O)C2(C)C (stereo partly drawn) | 101 to 1000 nM
8 | C=CCC(NC(=O)[C@@H]1[C@@H]2[C@H](CN1C(=O)[C@@H](NC(=O)OC(C)(C)C)C(C)(C)C)C2(C)C)C(=O)C(N)=O (stereo partly drawn) | > 1000 nM
9 | C=CCCC(NC(=O)C1[C@H]2[C@@H](CN1C(=O)[C@@H](NC(=O)OC(C)(C)C)C(C)(C)C)C2(C)C)C(=O)C(=O)NCCNC(C)=O (stereo partly drawn) | 101 to 1000 nM
10 | CCCC(NC(=O)C1C2C(CN1C(=O)C(NC(=O)C1Cc3ccccc3N1)C1CCCCC1)C2(C)C)C(=O)C(N)=O (stereo not drawn) | > 1000 nM

Other lines, results leading:

Row | Ki | SMILES
11 | 101 to 1000 nM | CCCC(NC(=O)[C@@H]1C2C(CN1C(=O)[C@@H](NC(=O)OCC(C)C)C1Cc3ccccc3C1)C2(C)C)C(=O)C(N)=O (stereo partly drawn)
12 | 101 to 1000 nM | C=CCCNC(=O)C(=O)C(CCCC)NC(=O)[C@@H]1[C@@H]2[C@H](CN1C(=O)[C@@H](NC(=O)OC(C)(C)C)C(C)(C)C)C2(C)C (stereo partly drawn) [drawing 1702]
13 | 101 to 1000 nM | C=CCNC(=O)C(=O)C(CCC)NC(=O)[C@@H]1[C@H]2[C@@H](CN1C(=O)[C@@H](NC(=O)OC(C)C)C1Cc3ccccc3C1)C2(C)C (stereo partly drawn)
14 | 101 to 1000 nM | C=CCNC(=O)C(=O)C(CCC)NC(=O)C1C2C(CN1C(=O)[C@H](NC(=O)OC(C)(C)C)C1CCCC(C(=O)OC(C)(C)C)C1)C2(C)C (stereo partly drawn)
15 | 101 to 1000 nM | C=CCNC(=O)C(=O)C(CC=C)NC(=O)[C@@H]1[C@H]2[C@@H](CN1C(=O)[C@@H](NC(=O)OC(C)(C)C)C1Cc3ccccc3C1)C2(C)C (stereo partly drawn)
16 | 101 to 1000 nM | C=CCNC(=O)C(=O)C(CCC)NC(=O)[C@@H]1[C@@H]2[C@H](CN1C(=O)[C@@H](NC(=O)OCC(C)(C)C)C1CCCCC1)C2(C)C (stereo partly drawn) [drawing 1826]

Same assay, conditions: Table 6; HCV NS3/NS4A protease, 30° C., pH 6.5; read-out: Ki*

Row | SMILES | Ki
17 | CN(C)C(=O)[C@@H](NC(=O)CNC(=O)C(=O)[C@H](CC1CCC1)NC(=O)[C@@H]1[C@H]2CC3(CC3)C[C@H]2CN1C(=O)[C@@H](NC(=O)OC(C)(C)C)C(C)(C)C)c1ccccc1 | 1 to 100 nM
18 | CN(C)C(=O)C(NC(=O)CNC(=O)C(=O)C(CC1CC1)NC(=O)[C@@H]1[C@H]2CC(C)(C)O[C@H]2CN1C(=O)[C@@H](NC(=O)OC1C2(C)CCC(C2)C1(C)C)C1CCCCC1)c1ccccc1 (stereo partly drawn) | 1 to 100 nM
19 | CCC(F)(F)CC(NC(=O)[C@@H]1[C@@H]2[C@H](CN1C(=O)[C@@H](NC(=O)OC(C)(C)C)C1CCCCC1)C2(C)C)C(=O)C(N)=O (stereo partly drawn) | 101 to 1000 nM
20 | CC(NC(=O)N[C@H](C(=O)N1C[C@H]2[C@@H]([C@H]1C(=O)NC(CC1CCC1)C(=O)C(N)=O)C2(Cl)Cl)C(C)(C)C)C(C)(C)C (stereo partly drawn) | 1 to 100 nM
21 | CN(C)C(=O)[C@@H](NC(=O)CNC(=O)C(=O)C(CC1COC1)NC(=O)[C@@H]1[C@@H]2[C@H](CN1C(=O)[C@@H](NC(=O)NC(C)(C)C)C(C)(C)C)C2(C)C)c1ccccc1 (stereo partly drawn) ({NHtBu-CO}-[Tle][Pro(3R,4S-CMe2)][X84]G[Phg]-NMe2) | 1 to 100 nM

Now from value to compound:

Row | Ki | SMILES
22 | 1 to 100 nM | C=CCCC(NC(=O)[C@@H]1[C@@H]2[C@H](CN1C(=O)[C@@H](NC(=O)NC(C)(C)C)C(C)(C)C)C2(C)C)C(=O)C(=O)NCC(=O)OC(C)(C)c1ccccc1 (stereo partly drawn)
23 | 101 to 1000 nM | C=CCNC(=O)C(=O)C(CCC)NC(=O)[C@@H]1[C@@H]2[C@H](CN1C(=O)C(NC(=O)O[C@@H]1CCOC1)C1CCCCC1)C2(C)C (stereo partly drawn) [drawing 2132]
24 | 1 to 100 nM | CC1(NC(=O)N[C@H](C(=O)N2C[C@H]3[C@@H]([C@H]2C(=O)NC(CC2CC2(F)F)C(=O)C(N)=O)C3(C)C)C2CCCCC2)CCCCC1 (stereo partly drawn)

— US7592316B2, “Peptides as NS3-serine protease inhibitors of hepatitis C virus” (Schering Corporation, priority 2000, dated 2009)
